Where “and” joins values, the source holds several entries; their conditions need not be identical. Equal entries are not always repeated. The shares of active, inactive and inconclusive entries below differ from those in the screen. No potency is given beside an inconclusive call; the fits are too rough. Calls of active or inactive are those of the source. Calls follow the shape of the dose curve; as a rule, active = well fitted curve in the direction sought with a large enough effect in the repeat runs; inconclusive = weak or mixed curves; inactive = no such curve, though single readings can be large; an effect the other way counts as inactive or inconclusive.
Test: qHTS RealTime-Glo MT Cell Viability Assay in HEK293 cells - 16 hour (AID 1224872); also: nearly all actives have a fitted effect of over 50% in size
Conditions: RealTime-Glo luminescence; series mostly up to 76.8 µM
How it was run: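 Viability tracked continuously by luminescence as live cells reduce a prosubstrate for NanoLuc; HEK293 cells preincubated 5 h, compound-treated at 37 C, and read at 0, 8, 16, 24, 32 and 40 h.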
Potency is read from the fitted curve at half-maximal effect; tags tell the direction and shape of the fitted curve.

Compound	Potency
CCC=CC#N	inactive
Cc1cn[nH]c1	inactive
C=C(C)[C@@H]1CCC2=CCC[C@@H](C)[C@]2(C)C1	inactive
O=C(O)Cc1ccc(OCCNC[C@H](O)c2ccccc2)cc1	inactive
O=C(O)CCCCC(=O)O	inactive
COC(=O)Nc1nc2ccc(C(=O)c3ccccc3)cc2[nH]1	inconclusive [cytotoxic, partial curve]
O=C1Cc2ccccc2N1c1c(Cl)cccc1Cl	inconclusive [cytotoxic, partial curve]
Oc1ccc(Sc2ccc(O)cc2)cc1	inconclusive [cytotoxic, partial curve]
CC1CC(C)C(=O)C1=O (stereo unspecified)	inconclusive [cytotoxic, partial curve]
C#CCN(C)Cc1ccccc1	inactive
Cc1ccc(OC(=O)c2ccccc2O)cc1	inactive
COC(=O)CS	inactive
COc1ccc(OC(F)(F)F)cc1CN[C@H]1CCCN[C@H]1c1ccccc1	active: 49 µM

Test: qHTS RealTime-Glo MT Cell Viability Assay in HEK293 cells - 40 hour (AID 1224874); also: nearly all actives have a fitted effect of over 50% in size; as to max response: % is scaled to controls: 0 for no effect and ±100 for the full control effect
Conditions: RealTime-Glo luminescence; max response: stronger effect = lower value
How it was run: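 HEK293 cells mixed with RealTime-Glo reagents (NanoLuc plus cell-permeant prosubstrate) at 600 cells/well, preincubated 5 h at 37 C/5% CO2, then given 23 nL compound in DMSO. Nonlytic luminescence from viable cells was read at 0, 8, 16, 24, 32 and 40 h.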

Compound	Potency	max response
OC[C@H]1O[C@@H](n2cnc3c(=S)nc[nH]c32)[C@H](O)[C@@H]1O	active: 21.3 µM	
OC[C@H]1O[C@@H]2O[C@H]3[C@H](O)[C@@H](O)[C@@H](O[C@H]4[C@H](O)[C@@H](O)[C@@H](O[C@H]5[C@H](O)[C@@H](O)[C@@H](O[C@H]6[C@H](O)[C@@H](O)[C@@H](O[C@H]7[C@H](O)[C@@H](O)[C@@H](O[C@H]1[C@H](O)[C@H]2O)O[C@@H]7CO)O[C@@H]6CO)O[C@@H]5CO)O[C@@H]4CO)O[C@@H]3CO		inactive: -4.99% and inactive: 23.3%
Cn1cnc2ncnc(N)c21		inactive: 11.2%
CCCCC[C@H](O)/C=C/[C@H]1[C@H](O)CC(=O)[C@@H]1C/C=C\CCCC(=O)O		inactive: 19.7%
CCOc1ccc2c(c1)C(C)=CC(C)(C)N2		inactive: -10.3% and inactive: 3.02%
Nc1ccc([N+](=O)[O-])cc1O	inconclusive [rising, full curve, poor fit]	
CC1CC(C)C(=O)C1=O (stereo unspecified)	active: 13.8 µM	
COc1cccc(O)c1O	inconclusive [rising, partial curve]	
CN(C)CCOC(c1ccccc1)c1ccccc1 (tested in a mixture with another compound)	inconclusive [cytotoxic, single point]	

Test: A CellTox Green Cytotoxicity Assay to monitor cytotoxicity in HEK293 cells - 24 hour (AID 1224875); also: nearly all actives have a fitted effect of over 45% in size
Conditions: CellTox Green fluorescence; series mostly up to 76.8 µM
How it was run: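 HEK293 cells premixed with CellTox Green dye were seeded at 600 cells/well and left 5 h at 37 C/5% CO2 before pin transfer of 23 nL compound in DMSO. Fluorescence from dye bound to dead-cell DNA was read during 40 h treatment.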

Compound	Potency
CCOc1ccc2c(c1)C(C)=CC(C)(C)N2	inconclusive [activator, partial curve, poor fit]
CC(C)(C)C1=CC(=O)C=C(C(C)(C)C)C1=O	inconclusive [activator, partial curve, poor fit]
OCC#CCO	inconclusive [activator, single point]
COc1ccc(OC(F)(F)F)cc1CN[C@H]1CCCN[C@H]1c1ccccc1	inconclusive [activator, single point]

Test: A CellTox Green Cytotoxicity Assay to monitor cytotoxicity in HepG2 cells - 16 hour (AID 1224876); also: nearly all actives have a fitted effect of over 45% in size
Conditions: CellTox Green fluorescence; series mostly up to 76.8 µM
How it was run: (§1)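 HepG2 cells were seeded together with the CellTox Green dye at 600 cells/well, left 5 h at 37 C/5% CO2, then given compounds in DMSO. Fluorescence from dye bound to dead-cell DNA was read repeatedly over 40 h of treatment at 37 C.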

Compound	Potency
C=C(C)[C@@H]1CCC2=CCC[C@@H](C)[C@]2(C)C1	inconclusive [activator, partial curve, poor fit]
O=C(O)CCCCCCCC(=O)O	inconclusive [activator, single point]
CCOc1ccc2c(c1)C(C)=CC(C)(C)N2	inconclusive [activator, single point]
OCC#CCO	inactive
O=c1cc(-c2ccccc2)oc2ccc3ccccc3c12	active: 24.5 µM
CCOC(=O)c1ccc(O)c(O)c1	inconclusive [activator, single point]

Test: A CellTox Green Cytotoxicity Assay to monitor cytotoxicity in HepG2 cells - 24 hour (AID 1224878); also: nearly all actives have a fitted effect of over 45% in size; as to Cytotoxicity: % is scaled to controls: 0 for no effect and ±100 for the full control effect
Conditions: CellTox Green fluorescence; series mostly up to 76.8 µM
How it was run: as §1

Compound	Potency
C=C(C)[C@@H]1CCC2=CCC[C@@H](C)[C@]2(C)C1	inconclusive [activator, single point]
O=C(O)CCCCCCCC(=O)O	inconclusive [activator, single point]
O=C1Cc2ccccc2N1c1c(Cl)cccc1Cl	inconclusive [activator, single point]
CCOc1ccc2c(c1)C(C)=CC(C)(C)N2	inconclusive [activator, single point]
c1ccc2cc3c4ccccc4c4ccccc4c3cc2c1	inconclusive [activator, partial curve, poor fit]
Cc1cc(=O)oc2cc(O)ccc12	inconclusive [activator, partial curve] and inactive
O=c1cc(-c2ccccc2)oc2ccc3ccccc3c12	active: 24.5 µM
O=S(=O)(O)CCCN1CCOCC1	inactive
CN(C)CCN1C(=O)c2ccccc2N(C)c2ccccc21	inactive

Test: A CellTox Green Cytotoxicity Assay to monitor cytotoxicity in HepG2 cells - 40 hour (AID 1224879); also: nearly all actives have a fitted effect of over 40% in size
Conditions: CellTox Green fluorescence; series mostly up to 76.8 µM
How it was run: as §1

Compound	Potency
OC[C@H]1O[C@@H]2O[C@H]3[C@H](O)[C@@H](O)[C@@H](O[C@H]4[C@H](O)[C@@H](O)[C@@H](O[C@H]5[C@H](O)[C@@H](O)[C@@H](O[C@H]6[C@H](O)[C@@H](O)[C@@H](O[C@H]7[C@H](O)[C@@H](O)[C@@H](O[C@H]1[C@H](O)[C@H]2O)O[C@@H]7CO)O[C@@H]6CO)O[C@@H]5CO)O[C@@H]4CO)O[C@@H]3CO	inconclusive [activator, single point]
COc1c(Br)cc(Br)c(C)c1Br	inconclusive [activator, single point]
O=C(O)CCCCCCCC(=O)O	inconclusive [activator, single point]
O=C1Cc2ccccc2N1c1c(Cl)cccc1Cl	inconclusive [activator, single point]
COC(=O)CS	inactive

From PubChem BioAssay (Tox21)
